Assay results from patent publication US20250057951A1 (UNIVERSIT T BASEL, published 2025).

Legend:
Experiment in all cases: cell-based or functional assay
[1] = molecular target: human CD117 variant E73Y on cells (human, UniProt P10721 26-976)
[2] = molecular target: human CD117 variant E73K on cells (human, UniProt P10721 26-976)
[3] = molecular target: human wild-type CD117 (human, UniProt P10721 26-976)
[4] = molecular target: human CD117 variant S123F on cells (human, UniProt P10721 26-976)
[5] = molecular target: human CD117 variant D121K on cells (human, UniProt P10721 26-976)
[6] = molecular target: human CD117 variant S123K on cells (human, UniProt P10721 26-976)

B1: recombinant human SCF (ligand)
chain: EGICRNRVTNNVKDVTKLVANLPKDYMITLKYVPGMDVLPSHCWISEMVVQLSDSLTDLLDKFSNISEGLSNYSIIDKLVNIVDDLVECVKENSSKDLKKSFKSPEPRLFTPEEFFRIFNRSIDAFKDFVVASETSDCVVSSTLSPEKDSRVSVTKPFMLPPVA
- EC50 [ng/ml] of SCF, SCF-dependent proliferation of TF-1 cells (CellTiter-Glo), Average [1]: 4.01 ng/mL
- EC50 [ng/ml] of SCF, SCF-dependent proliferation of TF-1 cells (CellTiter-Glo), Experiment #1 [1]: 4.37 ng/mL
- EC50 [ng/ml] of SCF, SCF-dependent proliferation of TF-1 cells (CellTiter-Glo), Experiment #2 [1]: 3.64 ng/mL
- EC50 [ng/ml] of SCF, SCF-dependent proliferation of TF-1 cells (CellTiter-Glo), Average [2]: 3.58 ng/mL
- EC50 [ng/ml] of SCF, SCF-dependent proliferation of TF-1 cells (CellTiter-Glo), Experiment #1 [2]: 3.73 ng/mL
- EC50 [ng/ml] of SCF, SCF-dependent proliferation of TF-1 cells (CellTiter-Glo), Experiment #2 [2]: 3.42 ng/mL
- EC50 [ng/ml] of SCF, SCF-dependent proliferation of TF-1 cells (CellTiter-Glo), Average [3]: 4.18 ng/mL
- EC50 [ng/ml] of SCF, SCF-dependent proliferation of TF-1 cells (CellTiter-Glo), Experiment #1 [3]: 4.14 ng/mL
- EC50 [ng/ml] of SCF, SCF-dependent proliferation of TF-1 cells (CellTiter-Glo), Experiment #2 [3]: 4.22 ng/mL
- EC50 [ng/ml] of SCF, SCF-dependent proliferation of TF-1 cells (CellTiter-Glo), Average [4]: 3.82 ng/mL
- EC50 [ng/ml] of SCF, SCF-dependent proliferation of TF-1 cells (CellTiter-Glo), Experiment #1 [4]: 4.01 ng/mL
- EC50 [ng/ml] of SCF, SCF-dependent proliferation of TF-1 cells (CellTiter-Glo), Experiment #2 [4]: 3.63 ng/mL
- EC50 [ng/ml] of SCF, SCF-dependent proliferation of TF-1 cells (CellTiter-Glo), Average [5]: 3.7 ng/mL
- EC50 [ng/ml] of SCF, SCF-dependent proliferation of TF-1 cells (CellTiter-Glo), Experiment #1 [5]: 4.15 ng/mL
- EC50 [ng/ml] of SCF, SCF-dependent proliferation of TF-1 cells (CellTiter-Glo), Experiment #2 [5]: 3.25 ng/mL
- EC50 [ng/ml] of SCF, SCF-dependent proliferation of TF-1 cells (CellTiter-Glo), Average [6]: 3.54 ng/mL
- EC50 [ng/ml] of SCF, SCF-dependent proliferation of TF-1 cells (CellTiter-Glo), Experiment #1 [6]: 3.76 ng/mL
- EC50 [ng/ml] of SCF, SCF-dependent proliferation of TF-1 cells (CellTiter-Glo), Experiment #2 [6]: 3.31 ng/mL
